Among all 200,000 compounds or so, about 560 (0.28%) were called active. The call rests on the fitted dose curve; in most records, active means well fitted inhibition curve with a large enough effect; inconclusive means small, poorly fitted or top-dose-only effect; inactive means flat fitted curve, though single readings scatter. The list shows a part of the results, in another mix than the full data.
target: Luciferin 4-monooxygenase (Photuris pensylvanica) (UniProt Q27757); assay: Counterscreen for Luciferase (Kinase-Glo TM) Inhibition; details: ATP luminescence, 8 min; at 38.3 µM (top of the series) unless noted; further: nearly all actives have a fitted effect of over 60% in size
Protocol: NCGC Assay Overview: NIH Molecular Libraries Screening Centers Network [MLSCN] NIH Chemical Genomics Center [NCGC] MLSCN Grant: None Luciferase (Kinase-Glo, Promega Corporation) was assayed for its ability to generate light using ATP and luciferin as substrates. The ATP concentration in the assay (10 uM) was within the linear range of enzyme activity for the assay conditions used.
NCGC Assay Protocol Summary: Four uL of substrate mix (final concentration, 50 mM imidazole pH 7.2, 50 mM KCl, 7 mM MgCl2, 10 uM ATP, 0.01% Tween 20, 0.05% BSA) was dispensed into white 1536 well plates. Twenty-three nL of compound was delivered by a pin tool and 2 uL of luciferase detection mix (Kinase-Glo, Promega)) was added. Following 8-minute incubation at ambient temperature, luminescence was measured by a ViewLux (Perkin Elmer) at 5 seconds exposure/plate.
On the % scale 0 is the no-effect control and ±100 the full control effect.

Which activity change, negative = inhibition does the source give for `Nc1nc(=S)c2ncn([C@H]3O[C@@H](CO)[C@@H](O)[C@@H]3O)c2[nH]1` here?
Its activity change, negative = inhibition is inactive: 0.173% [at 17.1 µM].

With `CNC(C)[C@@H](O)c1ccccc1` (stereo partly drawn) as the compound, how does the activity change, negative = inhibition read?
Its activity change, negative = inhibition is inactive: 0.408%.

Which activity change, negative = inhibition does the source give for `NC(N)=Nc1ccc2[nH]c3c(c2c1)C[C@@]1(O)[C@H]2Cc4ccc(O)c5c4[C@@]1(CCN2CC1CC1)[C@H]3O5` here?
Its activity change, negative = inhibition is inactive: 37.7%.
